# Assay results: the supplement of paper PMC8728848
# The other results are listed elsewhere or left out.
# B1: AT1G15820(NC) (Arabidopsis thaliana) (protein)
# chain: MAMAVSGAVLSGLGSSFLTGGKRGATALASGVGDAIAPFSFGSLLGTQLLLMGWVESKRWVDFFNPDSQSVEWATPWSKTAENFANYTGDQGYPGGRFFDPLGLAGKNRDGVYEPDFEKLERLKLAEIKHSRLAMVAMLIFYFEAGQGKTPLGALGL
# Columns and labels:
# Assay in all cases: glycan array binding signal (z-score within array); higher = stronger binding
# Details in all cases: glycan notation: IUPAC condensed, linker removed
# Gal(b1-2)Gal = biological target: Gal(b1-2)Gal
# In short: (§1)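 The binding signal is a Z-score computed within each array and averaged over linkers. Arrays of the same protein sequence at different concentrations or buffers were also averaged together. Data originate from 3228 arrays in the Consortium for Functional Glycomics database, kept only where the protein sequence was available.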
# Gal(b1-3)Gal = biological target: Gal(b1-3)Gal
# In short: as §1
# Gal(b1-3)Gal(b1-4)GlcNAc = biological target: Gal(b1-3)Gal(b1-4)GlcNAc
# In short: as §1
# Gal(b1-3)GalNAc = biological target: Gal(b1-3)GalNAc
# In short: as §1
# [1] = biological target: Gal(b1-3)GalNAc(a1-3)[Fuc(a1-2)]Gal(b1-4)Glc
# In short: as §1
# [2] = biological target: Gal(b1-3)GalNAc(a1-3)[Fuc(a1-2)]Gal(b1-4)GlcNAc
# In short: as §1
# Gal(b1-3)GalNAc(b1-3)Gal = biological target: Gal(b1-3)GalNAc(b1-3)Gal
# In short: as §1
# [3] = biological target: Gal(b1-3)GalNAc(b1-3)Gal(a1-4)Gal(b1-4)Glc
# In short: as §1
# [4] = biological target: Gal(b1-3)GalNAc(b1-4)Gal(b1-4)Glc
# In short: as §1
# [5] = biological target: Gal(b1-3)GalNAc(b1-4)[Neu5Ac(a2-3)]Gal(b1-4)Glc
# In short: as §1
# Gal(b1-3)GlcNAc = biological target: Gal(b1-3)GlcNAc
# In short: as §1
# [6] = biological target: Gal(b1-3)GlcNAc(a1-3)Gal(b1-4)GlcNAc
# In short: as §1
# [7] = biological target: Gal(b1-3)GlcNAc(a1-6)Gal(b1-4)GlcNAc
# In short: as §1
# Gal(b1-3)GlcNAc(b1-2)Man = biological target: Gal(b1-3)GlcNAc(b1-2)Man
# In short: as §1
# [8] = biological target: Gal(b1-3)GlcNAc(b1-2)Man(a1-3)[Gal(b1-3)GlcNAc(b1-2)Man(a1-6)]Man(b1-4)GlcNAc(b1-4)GlcNAc
# In short: as §1
# [9] = biological target: Gal(b1-3)GlcNAc(b1-2)Man(a1-3)[Gal(b1-3)GlcNAc(b1-2)Man(a1-6)]Man(b1-4)GlcNAc(b1-4)[Fuc(a1-6)]GlcNAc
# In short: as §1
# [10] = biological target: Gal(b1-3)GlcNAc(b1-2)Man(a1-3)[GlcNAc(b1-4)][Gal(b1-3)GlcNAc(b1-2)Man(a1-6)]Man(b1-4)GlcNAc(b1-4)GlcNAc
# In short: as §1
# [11] = biological target: Gal(b1-3)GlcNAc(b1-2)[Gal(b1-3)GlcNAc(b1-6)]Man(a1-6)[Gal(b1-3)GlcNAc(b1-2)Man(a1-3)]Man(b1-4)GlcNAc(b1-4)GlcNAc
# In short: as §1
# [12] = biological target: Gal(b1-3)GlcNAc(b1-3)Gal(b1-3)GlcNAc
# In short: as §1
# [13] = biological target: Gal(b1-3)GlcNAc(b1-3)Gal(b1-4)Glc
# In short: as §1
# [14] = biological target: Gal(b1-3)GlcNAc(b1-3)Gal(b1-4)GlcNAc
# In short: as §1
# [15] = biological target: Gal(b1-3)GlcNAc(b1-3)Gal(b1-4)GlcNAc(b1-2)Man(a1-3)[Gal(b1-3)GlcNAc(b1-3)Gal(b1-4)GlcNAc(b1-2)Man(a1-6)]Man(b1-4)GlcNAc(b1-4)GlcNAc
# In short: as §1
# [16] = biological target: Gal(b1-3)GlcNAc(b1-3)Gal(b1-4)GlcNAc(b1-2)[Gal(b1-3)GlcNAc(b1-3)Gal(b1-4)GlcNAc(b1-6)]Man(a1-6)[Gal(b1-3)GlcNAc(b1-3)Gal(b1-4)GlcNAc(b1-2)Man(a1-3)]Man(b1-4)GlcNAc(b1-4)[Fuc(a1-6)]GlcNAc
# In short: as §1
# [17] = biological target: Gal(b1-3)GlcNAc(b1-3)Gal(b1-4)GlcNAc(b1-3)Gal(b1-4)GlcNAc(b1-2)[Gal(b1-3)GlcNAc(b1-3)Gal(b1-4)GlcNAc(b1-3)Gal(b1-4)GlcNAc(b1-6)]Man(a1-6)[Gal(b1-3)GlcNAc(b1-3)Gal(b1-4)GlcNAc(b1-3)Gal(b1-4)GlcNAc(b1-2)Man(a1-3)]Man(b1-4)GlcNAc(b1-4)[Fuc(a1-6)]GlcNAc
# In short: as §1
# [18] = biological target: Gal(b1-3)GlcNAc(b1-3)Gal(b1-4)GlcNAc(b1-6)[Gal(b1-3)GlcNAc(b1-3)]Gal(b1-4)Glc
# In short: as §1
# [19] = biological target: Gal(b1-3)GlcNAc(b1-3)Gal(b1-4)[Fuc(a1-3)]GlcNAc
# In short: as §1
# [20] = biological target: Gal(b1-3)GlcNAc(b1-3)Gal(b1-4)[Fuc(a1-3)]GlcNAc(b1-6)[Gal(b1-3)GlcNAc(b1-3)]Gal(b1-4)Glc
# In short: as §1
# [21] = biological target: Gal(b1-3)GlcNAc(b1-3)GalNAc
# In short: as §1
# [22] = biological target: Gal(b1-3)GlcNAc(b1-6)Gal(b1-4)GlcNAc
# In short: as §1
# [23] = biological target: Gal(b1-3)GlcNAc(b1-6)GalNAc
# In short: as §1
# [24] = biological target: Gal(b1-3)GlcNAc(b1-6)[Gal(b1-3)]GalNAc
# In short: as §1
# Gal(b1-3)GlcNAc6S = biological target: Gal(b1-3)GlcNAc6S
# In short: as §1
# [25] = biological target: Gal(b1-3)[Fuc(a1-4)]GlcNAc
# In short: as §1
# [26] = biological target: Gal(b1-3)[Fuc(a1-4)]GlcNAc(b1-2)Man
# In short: as §1
# [27] = biological target: Gal(b1-3)[Fuc(a1-4)]GlcNAc(b1-2)Man(a1-3)[Gal(b1-3)[Fuc(a1-4)]GlcNAc(b1-2)Man(a1-6)]Man(b1-4)GlcNAc(b1-4)[Fuc(a1-6)]GlcNAc
# In short: as §1
# [28] = biological target: Gal(b1-3)[Fuc(a1-4)]GlcNAc(b1-3)Gal(b1-3)[Fuc(a1-4)]GlcNAc
# In short: as §1
# [29] = biological target: Gal(b1-3)[Fuc(a1-4)]GlcNAc(b1-3)Gal(b1-4)[Fuc(a1-3)]GlcNAc
# In short: as §1
# [30] = biological target: Gal(b1-3)[Fuc(a1-4)]GlcNAc(b1-6)GalNAc
# In short: as §1
# [31] = biological target: Gal(b1-3)[GlcNAc(b1-6)]GalNAc
# In short: as §1
# [32] = biological target: Gal(b1-3)[Neu5Ac(a2-6)]GalNAc
# In short: as §1
# [33] = biological target: Gal(b1-3)[Neu5Ac(a2-6)]GlcNAc(b1-4)Gal(b1-4)Glc
# In short: as §1
# [34] = biological target: Gal(b1-3)[Neu5Ac(b2-6)]GalNAc
# In short: as §1
# Gal(b1-4)Gal = biological target: Gal(b1-4)Gal
# In short: as §1
# [35] = biological target: Gal(b1-4)GalNAc(a1-3)[Fuc(a1-2)]Gal(b1-4)GlcNAc
# In short: as §1
# [36] = biological target: Gal(b1-4)GalNAc(b1-3)[Fuc(a1-2)]Gal(b1-4)GlcNAc
# In short: as §1
binder,measurement,setting,value
B1,glycan array binding signal (z-score),Gal(b1-2)Gal,-0.279
same,glycan array binding signal (z-score),Gal(b1-3)Gal,-0.352
same,glycan array binding signal (z-score),Gal(b1-3)Gal(b1-4)GlcNAc,0.208
same,glycan array binding signal (z-score),Gal(b1-3)GalNAc,-0.096
same,glycan array binding signal (z-score),[1],2.08
same,glycan array binding signal (z-score),[2],-0.432
same,glycan array binding signal (z-score),Gal(b1-3)GalNAc(b1-3)Gal,0.019
same,glycan array binding signal (z-score),[3],-0.402
same,glycan array binding signal (z-score),[4],0.284
same,glycan array binding signal (z-score),[5],-0.418
same,glycan array binding signal (z-score),Gal(b1-3)GlcNAc,1.38
same,glycan array binding signal (z-score),[6],-0.572
same,glycan array binding signal (z-score),[7],-0.36
same,glycan array binding signal (z-score),Gal(b1-3)GlcNAc(b1-2)Man,-0.381
same,glycan array binding signal (z-score),[8],-0.27
same,glycan array binding signal (z-score),[9],-0.259
same,glycan array binding signal (z-score),[10],-0.228
same,glycan array binding signal (z-score),[11],-0.564
same,glycan array binding signal (z-score),[12],-0.338
same,glycan array binding signal (z-score),[13],-0.109
same,glycan array binding signal (z-score),[14],-0.483
same,glycan array binding signal (z-score),[15],0.225
same,glycan array binding signal (z-score),[16],0.13
same,glycan array binding signal (z-score),[17],-0.214
same,glycan array binding signal (z-score),[18],5.77
same,glycan array binding signal (z-score),[19],0.419
same,glycan array binding signal (z-score),[20],0.118
same,glycan array binding signal (z-score),[21],-0.541
same,glycan array binding signal (z-score),[22],-0.987
same,glycan array binding signal (z-score),[23],0.191
same,glycan array binding signal (z-score),[24],-0.208
same,glycan array binding signal (z-score),Gal(b1-3)GlcNAc6S,-0.528
same,glycan array binding signal (z-score),[25],-0.085
same,glycan array binding signal (z-score),[26],-0.282
same,glycan array binding signal (z-score),[27],-0.354
same,glycan array binding signal (z-score),[28],-0.178
same,glycan array binding signal (z-score),[29],-0.458
same,glycan array binding signal (z-score),[30],-0.308
same,glycan array binding signal (z-score),[31],0.205
same,glycan array binding signal (z-score),[32],-0.282
same,glycan array binding signal (z-score),[33],-0.408
same,glycan array binding signal (z-score),[34],0.305
same,glycan array binding signal (z-score),Gal(b1-4)Gal,-0.398
same,glycan array binding signal (z-score),[35],-0.621
same,glycan array binding signal (z-score),[36],-0.535
